# Test results: the antibiotic and cytotoxicity screens of Wong et al. (2023)
# This is one part of the list.
# Tested on: HepG2
# Test: cytotoxicity call (relative viability < 0.9)
# Conditions: 10 µM
row,SMILES,cytotoxicity call
1,CS(=O)(=O)N1C[C@H]2C[C@@H](F)[C@@H](O)[C@@H]2C1,inactive
2,C[C@@H]1CCCCO[C@H](CN(C)Cc2ccccc2)[C@H](C)CN([C@H](C)CO)C(=O)c2cc(NC(=O)C3CCCCC3)ccc2O1,inactive
3,CC(=O)O[C@@H](C)C[N+](C)(C)C,inactive
4,CC(C)=CCOc1cc2oc(=O)ccc2cc1O,inactive
5,Cc1noc(C)c1NC(=O)N(C)C[C@@H]1OCCCC[C@H](C)Oc2ccc(NC(=O)C3CCCCC3)cc2C(=O)N([C@H](C)CO)C[C@@H]1C,inactive
6,COc1ccc([Si](C)(C)[C@H]2[C@H](CC(=O)N3Cc4ccccc4C[C@H]3CO)O[C@@]3(C(=O)N(Cc4ccc(N5CCOC5=O)cc4)c4ccccc43)[C@@H]2C)cc1,active
7,C[C@@H]1CN([C@@H](C)CO)C(=O)c2cc(NC(=O)Nc3cccc4ccccc34)ccc2O[C@@H]1CN(C)Cc1ccc(C(=O)O)cc1,inactive
8,C=CCN1C(=O)[C@]2(O[C@H](CCO)[C@@H]([Si](C)(C)c3ccc(OC)cc3)[C@@H]2C)c2cc(N3C(=O)c4cccc5cccc3c45)ccc21,active
9,CN1C(=O)c2cc(NS(=O)(=O)c3ccc(F)cc3)ccc2OC[C@H]2O[C@H](CC(=O)NCC(F)(F)F)CC[C@H]21,inactive
10,CC1(C)S[C@@H]2[C@H](NC(=O)C3(N)CCCCC3)C(=O)N2[C@H]1C(=O)O,inactive
11,CN1C(=O)c2cc(NC(=O)c3ccc(F)cc3)ccc2OC[C@@H]2O[C@H](CC(=O)N3CCOCC3)CC[C@H]21,inactive
12,CCOC[C@@H](O)CN,inactive

# Tested on: S. aureus RN4220
# Test: growth inhibition call (relative growth <= 0.2)
# Conditions: 50 µM
row,SMILES,growth inhibition call
1,C[C@H](CO)N1C[C@H](C)[C@@H](CN(C)Cc2ccc(-c3ccccc3)cc2)Oc2ccc(NC(=O)NC3CCCCC3)cc2CC1=O,inactive
2,C[C@H]1CCCCO[C@H](CN(C)S(=O)(=O)c2cn(C)cn2)[C@@H](C)CN([C@@H](C)CO)C(=O)c2cc(NS(=O)(=O)c3cn(C)cn3)ccc2O1,inactive
3,C[C@@H]1CCCCO[C@@H](CN(C)C(=O)Nc2ccc3c(c2)OCO3)[C@@H](C)CN([C@H](C)CO)C(=O)c2cc(NC(=O)CCCCCC(=O)Nc3ccccc3N)ccc2O1,inactive
4,COc1cccc(C#Cc2cnc3c(c2)C(=O)N([C@H](C)CO)C[C@H](C)[C@H](CN(C)C(=O)C2CCC2)O3)c1,inactive
5,C[C@H](CO)N1C[C@H](C)[C@@H](CN(C)C(=O)C2CCCCC2)Oc2ncc(C#CC3(O)CCCC3)cc2C1=O,inactive
6,COc1ccccc1-c1cccc(-c2nc(C(=O)NCc3ccncc3)cc3c2[C@@H](CCO)N([S@](=O)C(C)(C)C)C3)c1,inactive
7,C[C@@H]1CN([C@@H](C)CO)C(=O)CCCn2cc(nn2)CO[C@@H]1CN(C)C(=O)Nc1ccc2c(c1)OCO2,inactive
8,C[C@@H]1CCCCO[C@@H](CN(C)Cc2ccc(Cl)c(Cl)c2)[C@@H](C)CN([C@@H](C)CO)C(=O)c2cc(NS(=O)(=O)c3cn(C)cn3)ccc2O1,inactive
9,C[C@@H]1CN([C@@H](C)CO)C(=O)Cc2cc(NC(=O)Cn3cnnn3)ccc2O[C@@H]1CN(C)CC1CCCCC1,inactive
10,COc1ccc(CN(C)C[C@H]2Oc3c(NC(=O)Nc4ccc(C(F)(F)F)cc4)cccc3C(=O)N([C@@H](C)CO)C[C@@H]2C)cc1,inactive
11,C[C@H](CO)N1C[C@H](C)[C@@H](CN(C)C(=O)Nc2ccc3c(c2)OCO3)Oc2c(NC(=O)c3ccncc3)cccc2C1=O,inactive
12,COc1ccc(NC(=O)N(C)C[C@@H]2OCCCC[C@H](C)Oc3ccc(NC(=O)Nc4ccc(C(F)(F)F)cc4)cc3C(=O)N([C@H](C)CO)C[C@@H]2C)cc1,inactive
13,CCNC(=O)C[C@H]1CC[C@@H](NC(=O)C2CC2)[C@H](CO)O1,inactive
14,COc1ccc(S(=O)(=O)N(C)C[C@@H]2Oc3c(NC(=O)C4CC4)cccc3C(=O)N([C@H](C)CO)C[C@@H]2C)cc1,inactive
15,Cc1noc(C)c1NC(=O)N(C)C[C@@H]1OCCCC[C@H](C)Oc2ccc(NC(=O)Nc3ccccc3)cc2C(=O)N([C@@H](C)CO)C[C@@H]1C,inactive
16,C[C@H](CO)N1C[C@H](C)[C@H](CN(C)S(=O)(=O)c2ccc(-n3cccn3)cc2)OCc2cn(nn2)CCCC1=O,inactive
17,C[C@H]1CCCCO[C@@H](CN(C)S(=O)(=O)c2ccc(F)cc2)[C@@H](C)CN([C@@H](C)CO)C(=O)c2cc(NS(=O)(=O)c3ccc(Cl)cc3)ccc2O1,inactive
